In the supplement of paper PMC12217912:
The list shows a part of the results. The full chains were built here from the parent and the listed change. Values near 0.05 are background.

B1: TEV protease; numbered along this chain (parent)
chain: MGESLFKGPRDYNPISSSICHLTNESDGHTTSLYGIGFGPFIITNKHLFRRNNGTLVVQSLHGVFKVKDTTTLQQHLVDGRDMIIIRMPKDFPPFPQKLKFREPQREERICLVTTNFQTKSMSSMVSDTSCTFPSGDGIFWKHWIQTKDGQCGSPLVSTRDGFIVGIHSASNFTNTNNYFTSVPKNFMELLTNQEAQQWVSGWRLNADSVLWGGHKVFMVKPEEPFQPVKEATQL

Variants of: B1
Assay: raw area under fraction-flipped curve 0-4 h after induction (AUC4h, not background-subtracted), DNA-recorder readout of cleavage of the substrate (dimensionless); higher = more cleavage of the substrate by the protease variant
Conditions: temperature: 34 °C; time window: 0-4 h after rhamnose induction
Method: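 In vivo DNA recorder in E. coli TOP10(DE3) ΔrhaA at 34 °C. Each TEVp single-site mutant (parent TEVp 0) is paired with a single-site variant of the 7-mer TEVs (canonical ENLYFQ|S). The substrate sits between flexible linkers in a Bxb1-sfGFP-TEVs-SsrA fusion, so cleavage stabilises Bxb1 and speeds flipping of a recombination array, read by NGS. The value is the raw area under the fraction-flipped curve over 0-4 h after rhamnose induction (AUC4h), with ≥20 reads per time point. It is not background-subtracted; inactive controls average about 0.047.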
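Further: Bxb1 expression induced with 0.2% (w/v) L-rhamnose at OD600 near 0.5, cultures sampled hourly, flipped fraction per protease–substrate barcode pair counted by paired-end Illumina sequencing.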

| Variant | area with substrate ENLAFQS | area with substrate ENLDFQS | area with substrate ENLEFQS | area with substrate ENLFFQS | area with substrate ENLHFQS | area with substrate ENLNFQS | area with substrate ENLQFQS | area with substrate ENLRFQS | area with substrate ENLSFQS | area with substrate ENLWFQS | area with substrate ENLLFQS | area with substrate ENLPFQS | area with substrate ENLTFQS | area with substrate ENLCFQS | area with substrate ENLGFQS | area with substrate ENLKFQS | area with substrate ENLIFQS | area with substrate ENLVFQS | area with substrate ENLMFQS |
| --- | --- | --- | --- | --- | --- | --- | --- | --- | --- | --- | --- | --- | --- | --- | --- | --- | --- | --- | --- |
| Q146N | 0.0702 | 0.0624 | 0.052 | 0.0921 | 0.0817 | 0.0283 | 0.0828 | 0.0747 | 0.052 | 0.0654 |  |  |  |  |  |  |  |  |  |
| M122K | 0.069 | 0.0596 | 0.0601 | 0.109 |  | 0.0818 | 0.0643 |  | 0.0516 |  | 0.0771 | 0.0501 | 0.0339 |  |  |  |  |  |  |
| M122Y | 0.0669 | 0.0706 |  | 0.0703 |  | 0.0728 | 0.0762 | 0.0843 | 0.0615 |  | 0.0757 | 0.0585 |  | 0.0688 | 0.0786 | 0.0803 |  |  |  |
| M122P | 0.0635 |  | 0.0355 | 0.0836 | 0.0806 | 0.0798 |  | 0.0768 | 0.0651 | 0.015 | 0.0682 |  |  | 0.0835 | 0.0745 | 0.0864 | 0.063 | 0.0765 |  |
| P94Q | 0.0726 | 0.0649 | 0.0692 | 0.113 | 0.0728 | 0.0684 |  | 0.0731 | 0.0659 | 0.0545 | 0.0916 | 0.0716 |  |  |  | 0.0776 | 0.0722 | 0.0928 | 0.0798 |
| P94E | 0.0511 | 0.0429 | 0.0731 | 0.088 | 0.0641 | 0.0855 |  | 0.0717 |  | 0.0595 | 0.0687 | 0.0732 |  | 0.0646 |  | 0.0838 |  | 0.0764 | 0.073 |
| P94Y | 0.0597 | 0.067 |  | 0.0749 |  | 0.0802 | 0.0409 | 0.0913 | 0.0346 | 0.0517 |  | 0.0873 |  | 0.0646 |  | 0.0817 |  | 0.0852 |  |
| V126G | 0.064 | 0.068 |  | 0.0916 |  | 0.0491 | 0.0986 |  |  |  | 0.0664 |  |  |  |  | 0.0926 |  | 0.0895 |  |
| S135I | 0.0657 | 0.0643 |  | 0.0725 | 0.0671 | 0.0681 | 0.07 | 0.0288 | 0.0618 | 0.0603 | 0.0613 | 0.0642 |  |  |  | 0.0662 | 0.0723 | 0.056 |  |
| W144Q | 0.0616 | 0.0579 |  | 0.1 | 0.0745 | 0.0666 |  | 0.0522 | 0.0727 | 0.083 |  | 0.0588 |  | 0.0465 |  | 0.0851 |  | 0.0853 |  |
| T132G | 0.0744 |  |  | 0.0784 | 0.0703 | 0.0668 |  |  | 0.0601 |  |  | 0.0227 | 0.0706 |  |  | 0.0663 | 0.088 |  |  |
| T132F | 0.0536 | 0.0558 |  | 0.0739 |  | 0.0162 | 0.0557 |  | 0.0629 | 0.0697 | 0.0625 | 0.0594 |  |  |  | 0.0541 | 0.0646 | 0.0562 |  |
| T132Y | 0.0789 | 0.0595 | 0.0346 | 0.0484 | 0.0595 | 0.0689 |  |  | 0.0627 |  |  | 0.0071 |  |  |  | 0.0655 |  |  |  |
| Q151H | 0.078 | 0.0692 | 0.0552 | 0.088 |  | 0.055 | 0.0477 | 0.0645 | 0.0765 | 0.0491 | 0.0744 |  |  |  |  | 0.0727 | 0.0757 | 0.0807 |  |
| Q151S | 0.0575 |  | 0.0798 | 0.0809 | 0.0603 | 0.0644 |  |  | 0.0735 | 0.0623 | 0.0887 |  |  |  | 0.0656 | 0.054 |  |  |  |
| V113N | 0.0646 | 0.0516 |  | 0.0624 | 0.0558 | 0.0611 | 0.0565 | 0.0534 | 0.0695 | 0.0496 |  |  |  |  | 0.0545 | 0.0278 | 0.0662 |  |  |
| V113D | 0.0551 | 0.0617 | 0.0543 | 0.0515 | 0.0437 | 0.052 |  |  | 0.0509 |  | 0.058 | 0.056 |  | 0.0444 | 0.0582 | 0.054 | 0.0517 |  | 0.0556 |
| V113L | 0.0613 | 0.061 | 0.0612 | 0.0703 | 0.0701 | 0.0234 | 0.0675 | 0.082 | 0.0589 | 0.0864 |  | 0.064 |  | 0.0632 |  | 0.0791 | 0.0825 |  | 0.0838 |
| F95S | 0.0581 | 0.0528 | 0.0643 | 0.0711 | 0.0618 | 0.0642 | 0.0601 | 0.0601 | 0.0724 | 0.0608 |  | 0.0505 |  | 0.0716 |  | 0.0646 | 0.0534 | 0.0699 |  |
| K90F | 0.0682 | 0.0475 | 0.0911 | 0.0797 |  | 0.0691 |  |  | 0.0788 | 0.0584 |  |  |  | 0.0539 |  | 0.0957 | 0.0944 |  |  |
| S123T | 0.0713 | 0.0781 | 0.0619 |  |  |  | 0.0644 | 0.0911 | 0.0743 | 0.0597 | 0.0871 | 0.0768 | 0.097 |  |  | 0.0873 |  |  | 0.0864 |
| Q105N | 0.0747 | 0.053 | 0.054 | 0.0868 | 0.0434 | 0.0724 | 0.0728 | 0.0664 | 0.051 | 0.0629 |  | 0.0516 | 0.0767 |  |  | 0.0787 |  |  | 0.0733 |
| Q105K | 0.0575 | 0.0609 | 0.0508 | 0.0877 | 0.123 | 0.0631 | 0.0885 | 0.0714 | 0.0685 | 0.0631 |  | 0.0803 | 0.0591 | 0.0797 |  | 0.07 |  | 0.0808 | 0.0771 |
| R106I | 0.0636 |  | 0.0585 | 0.0642 |  | 0.071 | 0.0674 |  |  |  |  |  | 0.0702 |  | 0.0715 | 0.0695 |  | 0.0585 |  |
| E103Y | 0.0736 |  |  |  | 0.0681 | 0.0644 |  |  |  |  |  | 0.0628 |  |  |  | 0.0775 | 0.0826 |  |  |
| P155E | 0.0545 | 0.0481 | 0.0506 |  | 0.0579 |  | 0.0521 |  | 0.0596 | 0.0333 | 0.0559 | 0.06 |  | 0.0545 |  |  |  | 0.0517 |  |
| F92T | 0.0635 | 0.0455 |  |  | 0.057 | 0.059 | 0.0626 | 0.0595 | 0.0761 | 0.074 |  | 0.0554 |  | 0.0926 | 0.053 |  | 0.0826 | 0.0784 |  |
| F140M | 0.0594 | 0.0506 |  | 0.0818 |  | 0.0566 | 0.0469 | 0.0702 |  |  |  | 0.0791 |  | 0.0664 |  | 0.0695 |  |  |  |
| F140P | 0.0521 | 0.0674 |  | 0.0795 | 0.055 | 0.0687 | 0.0906 |  | 0.0558 |  | 0.0493 | 0.0591 |  | 0.0603 |  | 0.0615 |  | 0.0463 |  |
